Data taken from PubChem BioAssay AID743279 (National Center for Advancing Translational Sciences (NCATS), 2014).
The whole screen tested about 360,000 compounds, of which about 17,000 (4.7%) were called active. The inconclusive results got no clear call from the source; some entries with a clear call stand among them for comparison. No stated cut-off is given here; in the data, active means activity change below about -50%; inconclusive means mostly about -30% to -49%; inactive means weaker than that.
On the % scale 0 is the no-effect control and ±100 the full control effect.

Test: qHTS for Inhibitors of Inflammasome Signaling: IL-1-beta AlphaLISA Primary Screen
Conditions: THP-1 LPS/ATP IL-1B secretion, 16 h; at 57.5 µM, stronger effect = lower value
Method in brief: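 THP-1 cells pretreated 1 hr with compounds (up to 57.5 uM final), then stimulated with LPS (250 ng/mL final) plus ATP (1.25 mM final); secreted IL-1B measured by AlphaLISA after 16 hr, decreased signal indicating inhibition.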
For `Cc1ccc(-c2cc(C(=O)N/N=C/c3c(C)nn(C)c3C)c3ccccc3n2)cc1C`, the activity change was active: -50.7%. For `O=C(Nc1ccncc1)c1ccc(Cl)c(S(=O)(=O)N2CCc3ccccc32)c1`, the activity change was inconclusive: -48.5%. With `CCCc1ccc2oc(C(=O)N(Cc3ccncc3)CC3CCCO3)c(C)c2c1` (configuration not stated) the activity change was active: -84.6%. With `CCCCN(CC)CCNC(=O)CCC(=O)Nc1ccc2nc(N3CCN(C)CC3)cc(C)c2c1` the activity change was inconclusive: -44.9%. With `N#Cc1ccc(C(=O)N(Cc2ccco2)c2c(N)n(Cc3ccccc3)c(=O)[nH]c2=O)cc1` the activity change was inactive: -7.08%. In the case of `COc1ccc(-c2csc(NC(=O)Cc3cc(OC)c(OC)c(OC)c3)n2)cc1OC`, the activity change is reported as inconclusive: -44.6%. In the case of `COc1cc(NS(=O)(=O)c2ccc(Br)s2)cc(OC)c1`, the activity change is reported as inactive: 38.5%. For `O=C(Nc1cc(S(=O)(=O)N2CCOCC2)ccc1N1CCCC1)c1ccc(Cl)cc1`, the activity change was inconclusive: -36.8%. With `Cc1ccc(-c2csc3ncnc(N4CCN(c5ccccc5O)CC4)c23)cc1` the activity change was active: -61.3%. For `c1ccc(-c2cc3n(c2)CCc2ccccc2-3)cc1`, the activity change was inconclusive: -48.9%. With `O=C(CC1C(=O)NCCN1C(=O)Nc1ccc(Cl)cc1)Nc1ccc(F)cc1` (configuration not stated) the activity change was active: -64%. In the case of `CCN(CC)CCn1c2ccccc2c2cnc(N)c(C#N)c21`, the activity change is reported as active: -104%. With `CC(NCc1cc(Br)ccc1OCC(=O)NCc1ccccc1)c1ccccc1` (configuration not stated) the activity change was active: -68%. With `C/C(=N\Nc1nc(Nc2ccccc2)nc(N2CCOCC2)n1)c1cccs1` the activity change was inconclusive: -37.3%. In the case of `COc1ccccc1C(CCNCc1ccc(N(C)C)cc1)c1ccc(OC(C)C)cc1` (configuration not stated), the activity change is reported as active: -101%. In the case of `C#CCn1c(O)c(N=NC(=O)C(O)c2ccccc2)c2ccccc21` (configuration not stated), the activity change is reported as inconclusive: -39%. With `CN(C)/C=N/c1nc2ncc(-c3ccc(Cl)cc3)c(/N=C/N(C)C)n2n1` the activity change was inactive: 29.4%. With `CN(c1ccccc1)S(=O)(=O)c1cccc(C(=O)Nc2ccc(N3CCOCC3)cc2)c1` the activity change was inconclusive: -30.9%. With `O=C(NCCCOc1cccc(CN2CCCCC2)c1)c1ccc(Cl)c(Cl)c1` the activity change was inconclusive: -43.3%. With `O=C(Cc1ccc(NC(=O)C2CCCN(C(=O)c3ccccc3)C2)cc1)Nc1ccc(C(=O)N2CCOCC2)cc1` (configuration not stated) the activity change was inconclusive: -30.6%. With `COc1ccccc1OCCC(=O)Nc1cccc(S(=O)(=O)N2CCOCC2)c1` the activity change was inactive: -2.98%. With `CCOc1cc(/C=C(/C#N)c2nc3ccccc3[nH]2)ccc1Oc1ccc([N+](=O)[O-])cn1` the activity change was inconclusive: -41.1%. With `FC(F)(F)c1ccc(N2CCN(c3cc(-c4ccccc4)nc4ncnn34)CC2)nc1` the activity change was active: -61.2%. In the case of `O=C(/C=C/c1ccc(Cl)cc1)NCc1cccs1`, the activity change is reported as inconclusive: -33.1%. In the case of `Oc1ccc(CCc2ccccn2)cc1`, the activity change is reported as inactive: 5.47%. With `NC(c1csc(Nc2ncccn2)n1)C1CCCCC1` (configuration not stated) the activity change was inconclusive: -47.3%. In the case of `Cc1ccc2c(C(=O)CNc3nncs3)c(C)[nH]c2c1`, the activity change is reported as inconclusive: -41.8%. For `COc1cc2c(cc1NCc1ccc3c(c1)OCO3)oc1ccccc12`, the activity change was inconclusive: -39.9%. In the case of `CN(CC(=O)Nc1cccc(F)c1)C(=O)c1cn(-c2ccccc2)nc1-c1ccccc1`, the activity change is reported as inconclusive: -30.4%. For `C=C(C)[C@@H]1CC=C(CN2CCC(N3CCC(C(=O)N4CCCC4)CC3)CC2)CC1`, the activity change was active: -61.6%. In the case of `CN(CCC#N)C(=O)CC1(Cc2ccccc2)CCOC(C)(C)C1` (configuration not stated), the activity change is reported as inactive: 4.94%. In the case of `N#C/C(=C\c1ccccc1C(=O)O)c1nc2ccccc2[nH]1`, the activity change is reported as inactive: 12.5%. In the case of `Cc1cccc(C(=O)Nc2ccc3c(c2)ncn3C)c1`, the activity change is reported as inconclusive: -31%. With `Cc1cc(C(=O)NNC(=S)NCc2ccccc2)cs1` the activity change was inactive: 4.09%. With `N#CC(C#N)=C(Nc1ccc(F)cc1)SCc1cccc(Br)c1` the activity change was active: -95.8%. With `CCOC(=O)C1=C(CSc2nc3ccccc3s2)NC(=O)NC1c1ccc(OC)cc1` (configuration not stated) the activity change was active: -86%. For `CCCc1cc(NCCCN2CCOCC2)n2c(nc3ccccc32)c1C#N`, the activity change was inconclusive: -30.6%. For `O=C(Cc1ccccc1F)Nc1ccc2c(c1)CCC2`, the activity change was inconclusive: -31.6%. With `CC1(C)C2CCC(C2)C1(C)NC(=O)CNC1CCCCC1` (configuration not stated) the activity change was inconclusive: -35.6%. For `CC(C)C[C@@H](CN1CCC[C@@H]1CN1C(=S)NC[C@@H]1Cc1ccc(O)cc1)N1C[C@H](Cc2ccc(O)cc2)N(CCc2ccccc2)C1=S`, the activity change was active: -58.9%. In the case of `CCCOc1ccc(C(=O)CCNc2cccc(Cl)c2)cc1`, the activity change is reported as inconclusive: -40.3%. For `CC(=NNC(=S)Nc1ccccc1Cl)c1ccccn1`, the activity change was active: -102%. With `CC(=O)c1c(Cl)nc2cccc3c2c1-c1ccccc1C3=O` the activity change was inconclusive: -31.6%. In the case of `COc1ccc(C2CC(c3cc(Br)ccc3F)n3nnnc3N2)cc1` (configuration not stated), the activity change is reported as inconclusive: -36.6%. For `NC1=NC(=Nc2ccccc2)c2ccccc21`, the activity change was inconclusive: -47.4%. For `CCOc1ccc(-c2nnc(-c3cccs3)o2)cc1`, the activity change was inconclusive: -43.9%. For `CC(NC(=O)CN1CCN(c2ncccn2)CC1)c1ccc(F)cc1` (configuration not stated), the activity change was inactive: -12.1%. For `CC(C)c1ccc(NC(=O)C(c2ccccc2)N2CCN(C(=O)c3ccco3)CC2)cc1` (configuration not stated), the activity change was inconclusive: -47.6%. With `COc1cccc(CC(=O)Nc2ccc(S(=O)(=O)N3CCCCC3)cc2)c1` the activity change was inconclusive: -38.1%. For `CCN(CC)C(=O)c1cn(-c2cccc(OC)c2)c(=O)c2ccccc12`, the activity change was inactive: 0%. With `c1ccc(CN2CCN(c3nc(-c4ccccc4)nc(-n4ccnc4)n3)CC2)cc1` the activity change was inconclusive: -36.1%. For `O=C(N/N=C/c1cc2c(cc1Cl)OCO2)c1cc(-c2ccccc2)n[nH]1`, the activity change was inconclusive: -32.8%. With `COc1ccc(-c2csc3ncnc(NCCCO)c23)cc1` the activity change was inconclusive: -38.5%. In the case of `O=C(c1cc(COc2c(F)cccc2F)on1)N1CCC(c2ccccc2F)C1` (configuration not stated), the activity change is reported as inconclusive: -31.1%. In the case of `CC(C)(C)c1csc(NC(=O)c2ccccc2O)n1`, the activity change is reported as active: -83.2%. For `CCN(CC(O)Cn1c2ccccc2c2ccccc21)S(=O)(=O)c1ccc(C)cc1` (configuration not stated), the activity change was inconclusive: -35.4%. In the case of `Cc1nn(-c2ccccc2)c(C)c1/C=N/NC(=O)CSc1nc2ccccc2c(=O)n1-c1ccccc1`, the activity change is reported as inactive: 12%. For `S=C(NCC1CCCO1)c1ccc(Br)cc1` (configuration not stated), the activity change was active: -84.5%. In the case of `Cc1cc2n(n1)C(c1sccc1C)Nc1c(C)cccc1-2` (configuration not stated), the activity change is reported as inactive: -11.1%. With `CC(=O)c1ccc(OCc2cc(C(=O)N3CCCCC3c3cccnc3)no2)cc1` (configuration not stated) the activity change was inconclusive: -30.3%. For `O=C1/C(=C/c2cccc(Br)c2)SC(=S)N1CCC(=O)N(CCO)c1ccccc1`, the activity change was inconclusive: -38.1%. With `COc1ccc(Cl)c(-c2cc(C(=O)Nc3ccc(F)cc3)[nH]n2)c1` the activity change was inconclusive: -42.3%. In the case of `Cc1ccc(C(=O)CSc2nc(C(C)C)nc3ccccc23)cc1`, the activity change is reported as inactive: -17.5%. In the case of `O=[N+]([O-])c1ccc(-c2csc(NN=C3CCCC3)n2)cc1`, the activity change is reported as inconclusive: -38.8%. For `Cc1oc2nc(SCCCC(=O)NCCO)nc(N)c2c1C`, the activity change was inconclusive: -47.3%. For `COc1cc2c(cc1OC)CN(c1ccc(C(N)=O)cc1[N+](=O)[O-])CC2`, the activity change was inconclusive: -36%. For `CNc1cncc(-c2ccc(OC)c(OC)c2)n1`, the activity change was inactive: -2.07%. For `Cc1ccccc1Cn1c(-c2cncs2)nc2ccccc21`, the activity change was active: -52.1%. For `O=[N+]([O-])c1cc(/C=N\Nc2ccccn2)ccc1Cl`, the activity change was inconclusive: -36.8%. For `N#Cc1ccc(C(S(=O)(=O)Cc2ccccc2)S(=O)(=O)Cc2ccccc2)cc1`, the activity change was active: -57.9%. For `CCCC(c1nnnn1C(C)(C)CC)N(Cc1ccco1)Cc1cc2ccc(OC)cc2[nH]c1=O` (configuration not stated), the activity change was inconclusive: -45.7%. In the case of `Cc1ccc2[nH]c(=O)c(C3C(C#N)=C(N)Oc4c3ccc3cccnc43)cc2c1` (configuration not stated), the activity change is reported as inconclusive: -39.6%. For `CCOC(=O)N1CCN(C(=O)Nc2cccc(Cl)c2)CC1`, the activity change was inactive: -7.08%. In the case of `O=C(c1ccc(F)cc1)C1CCN(C(=O)NCc2ccccc2)CC1`, the activity change is reported as inactive: -4.72%. For `COCCN(CCOC)C(=O)COC(=O)c1cc([N+](=O)[O-])ccc1Cl`, the activity change was inconclusive: -36.2%. For `O=C(Nc1cccc(-c2csc(Nc3cccc(C(F)(F)F)c3)n2)c1)c1cc([N+](=O)[O-])cc(C(F)(F)F)c1`, the activity change was inactive: 3.6%. In the case of `CC(C)(C)NC(=O)COC(=O)/C=C/c1ccccc1[N+](=O)[O-]`, the activity change is reported as inconclusive: -32.5%. In the case of `Cc1ccc(NC(=O)C2CCN(S(=O)(=O)c3ccc4c(c3)NC(=O)C(C)S4)CC2)cc1C` (configuration not stated), the activity change is reported as inconclusive: -39.3%. With `CCOC(=O)c1oc2ccccc2c1NC(=O)c1ccccc1OC` the activity change was inconclusive: -36.6%. For `CCC(=O)c1ccc(OCC(=O)c2ccc3c(c2)NC(=O)CO3)cc1`, the activity change was inactive: -1.99%. For `Cc1ccc(-n2c(-c3ccc(Br)cc3)c[n+]3c2CCc2ccc4cccnc4c2-3)cc1`, the activity change was active: -105%. With `CCO[C@H]1OC(C(=O)NC2CC2)=C[C@@H](C2CC2)[C@@H]1CCCO` the activity change was inactive: 18.4%. With `O=S(=O)(Nc1cccc2c1CCCC2)c1ccc(Cl)cc1` the activity change was inconclusive: -39.8%. For `CC(=O)O[C@@H](C[C@@H](C)C1=C2C[C@H](O)C3[C@@]4(C)CCC(=O)C(C)(C)C4CC[C@]3(C)[C@@]2(C)CC1)[C@H]1OC1(C)C` (some centres not stated), the activity change was inconclusive: -31.9%. In the case of `c1ccc(CC2CCN(c3ncnc4sccc34)CC2)cc1`, the activity change is reported as active: -51.4%. For `O=C(COC(=O)/C=C/c1cn(-c2ccccc2)nc1-c1ccc2c(c1)OCCO2)NC1CCS(=O)(=O)C1` (configuration not stated), the activity change was inconclusive: -40.2%. With `COc1ccc(C2(C)NC(=O)N(CC(=O)Nc3ccc4ccccc4c3)C2=O)cc1OC` (configuration not stated) the activity change was active: -55.3%.
